In all, about 50,000 compounds went through this assay and about 800 (1.6%) showed an effect of 50% or more. The list shows a part of the results.
Each compound was assayed against Bcl-2-like protein 10 (Homo sapiens) (UniProt Q9HD36) (assay: Phenotype converters, Bcl-B/TR3 peptide binding displacement, primary biochemical FP (AID 1240;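 further: 0% = Bcl-B with tracer peptide and DMSO and 100% = tracer peptide lacking Bcl-B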)). Settings: GST-Bcl-B / FITC-TR3 peptide fluorescence polarization; stronger effect = higher value; compound at 3.75 mg/L.
UniProt Q9HD36, sequence (Q9HD36 whole entry, looked up): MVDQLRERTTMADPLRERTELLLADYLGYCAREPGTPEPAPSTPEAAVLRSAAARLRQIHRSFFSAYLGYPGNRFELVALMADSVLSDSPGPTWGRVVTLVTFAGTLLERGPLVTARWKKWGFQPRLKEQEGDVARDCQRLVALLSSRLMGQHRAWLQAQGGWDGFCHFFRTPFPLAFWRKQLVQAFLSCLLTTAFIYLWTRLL
`COC(=O)C1CC(=O)OC1c1ccccc1` (stereo not drawn) showed a displacement of 15.9%.
With `Cc1cc(OC2CCCCC2)nc(-c2ccccc2O)n1` the displacement was 2.6%.
For `CCOC(=O)c1ccccc1NC(=O)C1CN(S(=O)(=O)c2ccccc2)CCN1S(=O)(=O)c1ccccc1` (stereo not drawn), the displacement was 0.1%.
For `Clc1ccc(C=NN2CCN(Cc3ccccc3Cl)CC2)cc1`, the displacement was -5.4%.
Work on `CCN(C1CCCCC1)S(=O)(=O)c1ccc(F)cc1` yielded a displacement of -5.9%.
`CC(=O)CC(=O)Nc1cccc([N+](=O)[O-])c1` showed a displacement of 1.9%.
`O=C(COc1ccccc1)NNC(=O)COc1ccc(Br)cc1` showed a displacement of 4.8%.
`COC(=O)c1ccccc1NS(=O)(=O)c1ccc(NC(C)=O)cc1` showed a displacement of 11.6%.
`O=C(Nc1ccc2oc(-c3cccc(Br)c3)nc2c1)c1ccc([N+](=O)[O-])cc1Cl` showed a displacement of 5.9%.
`CCC1CCc2c(sc(NC(=O)C3C4CCC(C4)C3C(=O)O)c2C(=O)OC(C)C)C1` (stereo not drawn) showed a displacement of 2.3%.
For `O=C(O)CCN=C1CCc2ccccc2N1`, the displacement was -1.7%.
With `N/C(=N\OC(=O)c1ccc(Br)cc1)c1cccnc1` the displacement was -1.1%.
Compound `CC(=O)Nc1ccc(S(=O)(=O)Nc2ccc(O)c3ccccc23)cc1` has a displacement of 9.4%.
In the case of `CCCNC(=O)COc1ccc(C)cc1Br`, the displacement is reported as 6.6%.
With `Cc1ccc(-c2ccc(OCC(=O)Nc3cccc([N+](=O)[O-])c3)cc2)cc1` the displacement was -2.6%.
`Cc1c(C(=O)Nc2cccc(-c3nc4ncccc4o3)c2)cccc1[N+](=O)[O-]` showed a displacement of -1.3%.
`CCCOc1ccc(N2C(=O)CC(N3CCN(C(=O)OCC)CC3)C2=O)cc1` (stereo not drawn) gave a displacement of -3%.
With `O=C1C=C(c2cccc([N+](=O)[O-])c2)C(=O)N1c1ccc(Cl)cc1` the displacement was -4.3%.
`CC(C)=N/N=C1/NC(=O)C(CC(=O)Nc2ccc(C)c(C)c2)S1` (stereo not drawn) gave a displacement of -27.3%.
With `O=C1C(Cl)=C(Nc2ccc(Nc3ccccc3)cc2)C(=O)c2ccccc21` the displacement was 16.4%.
With `Cc1ccc(N2C(=O)C3C4C=CC(C5CC45)C3C2=O)cc1Cl` (stereo not drawn) the displacement was 2.9%.
With `CCc1nnc(NS(=O)(=O)c2ccc(NS(=O)(=O)c3ccc(C)cc3)cc2)s1` the displacement was -3.9%.
`Cc1ccc(C(=O)NCc2ccccn2)cc1[N+](=O)[O-]` showed a displacement of -17.4%.
Compound `Cc1nc2c(Cl)cccc2c2c1CC(C(C)(Cl)Br)O2` (stereo not drawn) has a displacement of -3.8%.
In the case of `O=C(CSc1nc2ccccc2[nH]1)Nc1ccc(Cl)c(Cl)c1`, the displacement is reported as -10.3%.
`CCCn1c(/N=C(\C)c2cc(Cl)ccc2O)nc2ccccc21` gave a displacement of 4.5%.
For `COc1ccc(C(=O)Nc2ccc3c(c2)OCO3)cc1`, the displacement was -4.2%.
Work on `CCN(CC)c1ccc(/C=N\NC(N)=O)cc1` yielded a displacement of 14.9%.
For `COc1ccc(CNC(=O)c2ccc([N+](=O)[O-])o2)cc1`, the displacement was -10.3%.
`Cc1cn(S(=O)(=O)c2ccc3ccccc3c2)cn1` showed a displacement of 14.1%.
`O=C1C2C3C=CC(O3)C2C(=O)N1c1cc(C(F)(F)F)ccc1Cl` (stereo not drawn) showed a displacement of 5.9%.
In the case of `CC(=O)NC1(Nc2ccc(C)cc2)C(=O)c2ccccc2C1=O`, the displacement is reported as -0.6%.
`COc1ccc2nc(SCC(=O)Nc3ccc(/C=C/c4ccccc4)cc3)[nH]c2c1` was tested, and the displacement was 6.3%.
`CCc1c(C)nc2[nH]nc(-c3ccccc3OC)n2c1=O` showed a displacement of -9.8%.
In the case of `CC(C)c1ccc(CNc2cc(N3CCN(S(C)(=O)=O)CC3)ccc2[N+](=O)[O-])cc1`, the displacement is reported as -4.6%.
`COc1ccc(C(=O)N2CCN(C(=O)COc3ccccc3)CC2)cc1` showed a displacement of 1.7%.
Compound `Cc1nc2cc(S(N)(=O)=O)ccc2n1-c1ccccc1` has a displacement of 14.4%.
`COCC(=O)Nc1cc(Cl)ccc1C` gave a displacement of -1.2%.
In the case of `Cc1ccc(/C(N)=N/OC(=O)c2cccc([N+](=O)[O-])c2C)cc1`, the displacement is reported as 5.5%.
With `O=C1CC(Nc2ccccc2)C(=O)N1c1ccc(N2CCOCC2)cc1` (stereo not drawn) the displacement was -3.8%.
`CCCC(C)NC(=O)c1ccc(Cl)cc1Cl` (stereo not drawn) gave a displacement of 0.9%.
Work on `CCOc1ccc(-c2csc(N)c2C(=O)OC)cc1` yielded a displacement of -7.2%.
Compound `Cc1c(NC(=O)c2c(Cl)cccc2Cl)c(=O)n(-c2ccccc2)n1C` has a displacement of 15.1%.
`COc1cc(OC)cc(C(=O)Nc2ccc(-c3ccc(NC(=O)c4cc(OC)cc(OC)c4)c(OC)c3)cc2OC)c1` showed a displacement of 10.4%.
Work on `COc1ccc(Br)cc1/C=N/n1cnnc1` yielded a displacement of 13.3%.
`CC1Cc2ccccc2N1C(=O)c1ccc(N2CCCCC2)c([N+](=O)[O-])c1` (stereo not drawn) was tested, and the displacement was -2%.
For `O=S(=O)(Nc1nc2ccccc2s1)c1cccs1`, the displacement was -4.6%.
In the case of `Cc1ccc(C(C)C)c(OCCNS(C)(=O)=O)c1`, the displacement is reported as 1%.
`O=C(O)c1cc(NC(=O)c2cccc(C(=O)Nc3cc(C(=O)O)cc(C(=O)O)c3)c2)cc(C(=O)O)c1` was tested, and the displacement was 3.6%.
Compound `CC(CCc1ccc(C(=O)CCCC(=O)O)s1)CC(=O)O` (stereo not drawn) has a displacement of 5.3%.
Work on `COc1ccccc1N1C(=O)CC(S/C(N)=N/N=C(\C)c2ccc(F)cc2)C1=O` (stereo not drawn) yielded a displacement of -9.1%.
`O=C(O/N=C/c1ccc([N+](=O)[O-])o1)c1ccccc1Br` gave a displacement of 0.9%.
In the case of `N#CC1=C(SCC(N)=O)NC(=O)CC1c1ccsc1` (stereo not drawn), the displacement is reported as -2.1%.
With `COc1ccc(S(=O)(=O)N2CCSC2c2ccccc2Cl)cc1` (stereo not drawn) the displacement was 11.1%.
In the case of `CC(Oc1ccc(Cl)cc1Cl)C(=O)N1CCN(c2ccccc2)CC1` (stereo not drawn), the displacement is reported as -8.4%.
In the case of `NC(=O)SCC(=O)Nc1cccc(Cl)c1`, the displacement is reported as 5.1%.
`CCc1ccc(N2N=C(C)/C(=C\c3cc(Br)c(O)c(OC)c3)C2=O)cc1` gave a displacement of 14%.
`CCN(CC)c1ccc(/C=C/C(=O)C23CC4CC(CC(C4)C2)C3)cc1` gave a displacement of -6.1%.
With `COc1cccc(NC(=O)COc2ccc(C)cc2C)c1` the displacement was 10.9%.
In the case of `O=C(O)CN1C(=O)/C(=C/c2c(Cl)cccc2Cl)SC1=S`, the displacement is reported as 9.9%.
Work on `CN(c1ccccc1)c1ccc(/C=C2/C(=O)ON=C2c2ccc([N+](=O)[O-])cc2)cc1` yielded a displacement of -1.7%.
In the case of `Cc1cc(C)nc(SCC(O)COCc2ccccc2)n1` (stereo not drawn), the displacement is reported as 0%.
In the case of `COc1cccc(NC2=C(Cl)C(=O)N(c3ccccc3C)C2=O)c1`, the displacement is reported as 3.7%.
For `Cc1nc(SCC(=O)c2ccccc2)c(C#N)c(-c2cccc(Cl)c2)c1C(=O)Nc1ccccc1`, the displacement was 2.8%.
In the case of `CN1CCN(NC(=O)c2ccc(Cl)cc2[N+](=O)[O-])CC1`, the displacement is reported as -5.8%.
In the case of `COc1cc(C(=O)NC(NC(=S)Nc2ccc(NC(C)=O)cc2)C(Cl)(Cl)Cl)cc(OC)c1OC` (stereo not drawn), the displacement is reported as -9.2%.
For `COc1ccc(CCNC(=O)C(=O)Nc2cc(Cl)ccc2C)cc1OC`, the displacement was 4.7%.
`C/C(=N\N1C(=O)c2ccccc2C1=O)c1cccc([N+](=O)[O-])c1` was tested, and the displacement was -1.5%.
With `C(=NN1CCN(Cc2ccccc2)CC1)c1cccc(Oc2ccccc2)c1` the displacement was 5.2%.
Work on `CC(NC(=O)/C(CCCC#N)=N/O)c1ccccc1` (stereo not drawn) yielded a displacement of -21.5%.
`COc1cccc(C(=O)Oc2ccc3c(C)cc(=O)oc3c2)c1` showed a displacement of -3.7%.
In the case of `O=C(Nc1scc(-c2cccs2)c1C(=O)O)c1ccccc1I`, the displacement is reported as -10.3%.
Work on `CC(=O)N1CCN(c2ccc(NC(=O)c3cc(Cl)ccc3Cl)cc2)CC1` yielded a displacement of 6.7%.
In the case of `N#C/C(=C\c1cccc(O)c1)C(=O)NCC1CCCO1` (stereo not drawn), the displacement is reported as -11.1%.
`COc1ccc(CNc2ccc(C)cc2Br)cc1OC` gave a displacement of 7.9%.
`O=S(Cc1ccc(Cl)cc1)CC(O)COCc1ccc(Cl)cc1` (stereo not drawn) was tested, and the displacement was 7.9%.
`O=C1CSC(=S)N1/N=C/c1ccc(OCCOc2ccc(Br)cc2)cc1` showed a displacement of -1.9%.
With `NNC(=O)c1cc(-c2cccc3ccccc23)n[nH]1` the displacement was -24.4%.
Compound `Cc1[nH]c2c(ccc3ccccc32)c(=O)c1CN1CCOCC1` has a displacement of -0.7%.
Compound `NC(=O)c1ccc(NC(=O)C2COc3ccccc3O2)cc1` (stereo not drawn) has a displacement of 2.5%.
In the case of `Cc1ccc([N+](=O)[O-])cc1NC(=O)c1ccc(I)cc1`, the displacement is reported as 6.9%.
`O=C(COc1ccc(Cl)cc1Cl)N/N=C/CCc1ccccc1` gave a displacement of 21%.
In the case of `O=C(Nc1cccc2ccccc12)c1cc(-c2ccco2)nc2ccccc12`, the displacement is reported as 34.2%.
With `Cc1ccccc1C(=O)NNC(=O)c1ccc(Cl)cc1` the displacement was -5.9%.
`CC(=O)c1ccc(NC(=O)c2ccc(-c3cccc(Cl)c3)o2)cc1` showed a displacement of 8.8%.
`O=C(COc1ccc(Cl)cc1Br)NCC1CCCO1` (stereo not drawn) gave a displacement of -4.6%.
With `CC1(C(=O)Nc2cccc3ccccc23)CCCCC1` the displacement was 3.2%.
With `Cc1cc(C)c(NS(=O)(=O)c2cc(C)ccc2C)c(C)c1` the displacement was 10.3%.
For `O=C(CCc1ccccc1)Nc1cc(Cl)c(Cl)cc1Cl`, the displacement was 14.1%.
In the case of `O=S(=O)(c1ccc(Cl)cc1)c1ccc(Oc2ccc(Cl)cc2)cc1`, the displacement is reported as -3.5%.
Compound `CCSc1nnc(NC(=O)COc2ccccc2)s1` has a displacement of 16.5%.
Work on `CCOC(=O)c1c(-c2ccccc2)oc2ccc(OCC(=O)N(CC)CC)cc12` yielded a displacement of 9.9%.
With `COC(=O)c1ccc(/C=N/NC(=O)C2CC(=O)N(c3ccc(OC)cc3)C2)cc1` (stereo not drawn) the displacement was -4.3%.
`O=c1/c(=C/c2cc(Cl)c(OCCOc3ccccc3)c(Cl)c2)sc2nc3ccccc3n12` showed a displacement of 18.1%.
In the case of `CC1=C(C(=O)Nc2ccccc2)C(c2ccc(Cl)cc2)C(C(=O)Nc2ccccc2)=C(C)N1`, the displacement is reported as 7.8%.
Compound `COCCCNCCCCOc1cc(C)cc(C)c1C` has a displacement of -7.2%.
`COCc1cccc(N2C(=O)c3cccc([N+](=O)[O-])c3C2=O)c1` was tested, and the displacement was 2.9%.
For `COc1cccc(/C=C2\C(=O)NC(=O)N(c3cc(C)cc(C)c3)C2=O)c1OC`, the displacement was 6.3%.
In the case of `Cc1ccc(NC(=O)c2cnn(-c3ccccc3)c2NC(=O)c2ccccc2Cl)cc1C`, the displacement is reported as 3.3%.
`O=C(Nc1ccc(F)cc1F)c1ccco1` gave a displacement of -6.6%.
Work on `Cc1cc(-c2ccccc2)nc(N/N=C/c2ccccc2F)n1` yielded a displacement of -3.8%.
`CCOc1ccccc1N1COc2ccc3ccccc3c2C1` showed a displacement of -3.7%.
Work on `CCOc1ccc(-n2c(O)c(C=Nc3ccc(C)cc3)c(=O)[nH]c2=O)cc1` yielded a displacement of -8.1%.
Work on `Cc1ccc(C(=O)CCNc2ccccc2)o1` yielded a displacement of 4.7%.
Compound `Cc1ccc(C(=O)Nc2cccc(NC(=O)c3ccc(C)c(C)c3)c2)cc1` has a displacement of -4.5%.
Work on `CCn1c2ccccc2c2cc(NC(=O)C/C(C)=N/NC(=O)OCc3ccc(OC)cc3)ccc21` yielded a displacement of -0.6%.
`CCOc1ccccc1NC(=O)C(=O)NCc1ccccc1OC` was tested, and the displacement was 2.8%.
Work on `COC(=O)C1=C(C)NC(C)=C(C(=O)OC)C1c1ccc(I)cc1` yielded a displacement of 6.1%.
Work on `CCOc1ccc(C(=O)Nc2ccncc2)cc1` yielded a displacement of 14.6%.
For `CC(=O)Nc1ccc(S(=O)(=O)Nc2ccc(C)c(Br)c2)cc1`, the displacement was -5.9%.
`CCC(C#CCN(CC)CC)OC(C)=O` (stereo not drawn) showed a displacement of 4.7%.
`COc1ccc(C(=O)/C=C/Nc2ccccc2F)cc1` showed a displacement of 5.6%.
`COc1ccc(C)cc1NC(=O)c1cc(-c2cccs2)nc2ccccc12` was tested, and the displacement was 8.8%.

From PubChem BioAssay AID1240 (Sanford-Burnham Center for Chemical Genomics, 2008)
